Experiment [1] in a line: qHTS assay for small molecules that induce genotoxicity in human embryonic kidney cells expressing luciferase-tagged ATAD5 - cell viability (AID 651634; calls by dose curve; note: nearly all actives have a fitted effect of over 25% in size). In a few lines:
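After 15.5 hr incubation with compound at 37C, 5% CO2, HEK293T ATAD5-luciferase cells received CellTiter-Fluor reagent; fluorescence intensity was quantified following 30 min at 37C.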
(In general: Quantitative high-throughput screening tests each substance at several concentrations.)

The nature of experiment [2]: qHTS assay to identify small molecule antagonists of the glucocorticoid receptor (GR) signaling pathway - cell viability counter screen (AID 720693). Note: nearly all actives have a fitted effect of over 55% in size.
The nature of experiment [3]: qHTS assay to identify small molecule antagonists of the constitutive androstane receptor (CAR) signaling pathway - cell viability counter screen (AID 1224837). Note: nearly all actives have a fitted effect of over 45% in size. The method in brief:
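Cells are seeded, rested 4 hr at 37 C/5% CO2, dosed with compound (15-point series) and 50 nM CITCO, incubated a further 23 hr, and then CellTiter-Fluor reagent is added before fluorescence is read. The line is HepG2 with stable hCAR and CYP2B6-2.2kb.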

A short description of experiment [4]: qHTS assay to identify small molecule agonists of the sonic hedgehog signaling (Shh) pathway (AID 1259368; calls by dose curve; note: nearly all actives have a fitted effect of over 15% in size). In a few lines: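 Quantitative high-throughput format using a Gli1-driven firefly luciferase reporter line derived from NIH/3T3 cells. After a 24 hr compound treatment at 37 C and 5% CO2, luminescence reported Gli1 response element activity.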
Experiment [5] is described as follows: qHTS assay to identify small molecule antagonists of the TGF-beta/Smad signaling pathway - cell viability counter screen (AID 1346824). Note: nearly all actives have a fitted effect of over 50% in size. The method in brief: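 SBE-bla HEK 293T cells were plated overnight at 37 C, then given compounds in DMSO plus TGF-beta1 (added as 0.25 ng/mL solution) for 5 hr. After the bla read, CellTiter-Glo was added to the same wells and luminescence read after 30 min at room temperature.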

A short description of experiment [6]: qHTS assay to identify small molecule antagonists of the progesterone receptor (PR) signaling pathway - cell viability counter screen (AID 1346798). Note: nearly all actives have a fitted effect of over 50% in size. In a few lines:
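Luminescence readout (CellTiter-Glo, 30 min, RT) of viability in PR-UAS-bla HEK293T cells exposed to compound and R5020 agonist for 16 hr at 37C, 5% CO2; run in the same wells as the beta-lactamase reporter read.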

The values below come from PubChem BioAssay (Tox21).

Records with an inconclusive call do not appear. Unless noted, calls come from the whole dose curve; as a rule, active = well fitted curve in the direction sought with a large enough effect in the repeat runs; inconclusive = weak or mixed curves; inactive = no such curve, though single readings can be large; an effect the other way counts as inactive or inconclusive. The source holds several records for some structures; these can differ, active in one and inactive in another. The source holds more than one record for some entries. They are shown here; other results are not. An entry can have further records. Results that share an entry are repeated measurements in other runs, samples, wells, individuals or studies. A tag in brackets gives the origin of a value. Letters hold for one entry only.
Potency is the fitted concentration of half-maximal effect.

In the case of `Oc1ccc(Cl)cc1Cc1ccccc1`, the Potency entry in experiment [1] was “inactive [sample A] and inactive [sample B] and active: 55.1 µM [sample C]”; in experiment [2], “inactive [sample A] and active: 55.6 µM [sample B]”.

`Cc1cccc(N=Nc2ccc(N(C)C)cc2)c1`: the Potency result in experiment [3] is “inactive [sample A] and active: 433 nM [sample B]”; in experiment [4], “inactive [sample A] and active: 486 nM [sample B]”.

For the molecule `CCOP(=O)(O)OCC` (tested in a mixture with another compound), the Potency entry in experiment [3] was “inactive [sample A] and active: 27.1 µM [sample B]”; in experiment [5], “inactive [sample A] and active: 38.6 µM [sample B]”.

With `Clc1ccccc1-c1nnc(-c2ccccc2Cl)nn1`, the Potency entry in experiment [4] was “active: 54 µM [sample A] and inactive [sample B]”.

As for `Nc1ccc([N+](=O)[O-])cc1N`, the Potency entry in experiment [6] is “active: 30.6 µM [sample A] and inactive [sample B]”.
